Laboratory results reported in PubChem BioAssay AID1508623 (National Center for Advancing Translational Sciences (NCATS), 2021).
Among all 48,000 compounds or so, about 450 (0.94%) were called active. Inconclusive results (about 19%) are left out. Calls follow the shape of the dose curve; as a rule, active = well fitted inhibition curve with a large enough effect; inconclusive = small, poorly fitted or top-dose-only effect; inactive = no such curve, though single readings can be large or run the other way. The list shows a part of the results.

Test: Primary qHTS for Identification of Small Molecule Inhibitors of Huntingtin Promoter Activity; also: nearly all actives have a fitted effect of over 50% in size
Conditions: HEK293 HTT promoter firefly luciferase reporter (activity 0% = vehicle and -100% = no light), 24 h; series mostly up to 57.5 µM; activity change, negative = inhibition: at the top concentration
Method in brief: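 HEK293 cells carrying firefly luciferase reporters were seeded at 2,500 per well in Opti-MEM and cultured for 24 h. They were then treated with compounds at up to 57.5 uM final for 24 h at 37 degrees C before Dual-Glo luminescence readout.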

Activity change, negative = inhibition, inactive:
COc1cccc(CNC(=O)CN2C(=O)CSc3ccc(S(=O)(=O)N4CCCC4)cc32)c1 2.22%
Cc1cc(C)c(NC(=O)CN2C(=O)CCSc3ccc(S(=O)(=O)N4CCCC4)cc32)c(C)c1 -25.2%
COCCn1c(C)cc(O)c(C(c2ccc(Cl)cc2)N2CCCCC2)c1=O (stereo not drawn) -11.9%
COc1ccc(C2C(=O)N(C3CCCCC3)CC(=O)N2C2CCCCC2)cc1 (stereo not drawn) -8.56%
O=C(c1ccccc1)N1CCCCC1CCN1CCCCC1 (stereo not drawn) -7.27%
CCN(Cc1ccccc1)C(=O)C(CC(C)C)NS(=O)(=O)c1ccc2c(c1)CCN2C(C)=O (stereo not drawn) -16.2%
Cc1ccc(-n2c(=O)c3ccccc3n(CC(=O)Nc3cccc(C(F)(F)F)c3)c2=O)cc1 -26.9%
N#C/C(=C\c1ccc(Cl)cc1)c1nc(-c2cc3c(ccc4ccccc43)oc2=O)cs1 -0.596%
O=C(Cn1c(=O)n(-c2ccccc2)c(=O)c2sc3ccccc3c21)NC1CCCC1 -9.06%
O=C(CN1C(=O)CC(c2ccc(F)cc2)=Nc2ccccc21)NCc1ccccc1Cl -23.7%
O=C(CSc1nnc2[nH]c(=O)cc(-c3ccccc3)n12)Nc1cc(C(F)(F)F)ccc1Cl 36.4%
CCOc1ccc(NC(=O)CN(C)S(=O)(=O)c2cnc[nH]2)cc1 3.13%
Nc1c(C(=O)Nc2cccc(C(F)(F)F)c2)c2ccccn2c1C(=O)c1ccccc1 -1.64%
Cc1ccc2oc(-c3cc(NC(=O)/C=C/c4ccco4)ccc3Cl)nc2c1 0%
CC(=O)Nc1nonc1-c1nc2ccccc2n1Cc1ccccc1Br 2.6%
COc1cc2c(cc1OC)C(COc1ccc3c(C)cc(=O)oc3c1)N(C(=O)CC(C)C)CC2 (stereo not drawn) -8.94%
CCC1Nc2cc(Cl)c(S(N)(=O)=O)cc2S(=O)(=O)N1 (stereo not drawn) -6.49%
Brc1ccc2nc(SCCOc3ccccc3)[nH]c2c1 8.85%
COc1ccc(NC(=O)CCc2c(C)nc3c(-c4ccc(F)cc4)c(C)nn3c2C)c(OC)c1 -11.8%
Cc1ccccc1CN1CCCN(CC(=O)Nc2ccc3c(c2)OCCO3)S1(=O)=O -5.72%
COC(=O)c1cc(NC(=O)c2ccc(-c3ccc(Cl)cc3Cl)o2)cc(C(=O)OC)c1 -7.64%
CCOC(=O)c1noc2nc(C)n(Cc3ccc([N+](=O)[O-])cc3)c(=O)c12 -17.5%
Cc1cccc(Cn2nnc3c(=O)[nH]c(C4CCN(C(=O)c5ccc(F)cc5)CC4)nc32)c1 -8.87%
CN1CCN(C(CNC(=O)c2ccccc2)c2ccc3c(c2)OCO3)CC1 (stereo not drawn) -11.3%
CCn1c(=O)cc(SCC(=O)N2CCN(c3ccccc3F)CC2)c2ccccc21 -3.38%
O=C(NCc1cccc(Cl)c1)C1CCCN(c2ncnc3onc(-c4ccc(F)cc4)c23)C1 (stereo not drawn) -22.5%
CCOc1ccc(NC(=O)c2c(NC(=O)c3cccs3)sc3c2CCC(C(C)(C)C)C3)cc1 (stereo not drawn) -6.27%
CNC(=O)C1CCN(c2nc3ccccc3nc2C(F)(F)F)CC1 -19.9%
O=C(Nc1ccc(C(F)(F)F)cc1)N1CCC(N2CCCCC2)CC1 -4.19%
COc1cc(Cl)c(C)cc1NC(=O)c1cnc2c(-c3cccc(C)c3)c(C)nn2c1C -24.7%
CNC(=O)c1ccc(CSc2nc3ccncc3n2Cc2ccc(C)cc2)cc1 -25.1%
CCCN(C(=O)Cn1cc(S(=O)(=O)N2CCN(c3ccccc3F)CC2)c2ccccc2c1=O)c1cccc(C)c1 -14.7%
CC(C)CN(CCNC(=O)c1cc(-c2ccc(Cl)s2)nc2ccccc12)CC(C)C -5.06%
CCOc1ccc(OCC)c(Nc2nc3ccc(Cl)cc3n3cnnc23)c1 -19.4%
COc1cccc(CNC(=O)Cn2c(C)c3cnn(-c4ccccc4)c(=O)c3c2C)c1 -11.7%
CC(C)(C)C(=O)Cn1c(=O)n(-c2ccc(Cl)c(Cl)c2)c(=O)c2c3c(sc21)CCCC3 -7.84%
Cc1cc(C)cc(N2CCn3c2nc2c3c(=O)n(CCCc3ccccc3)c(=O)n2C)c1 6.78%
COCc1cc(C)nc2sc(C(=O)Nc3cc(C)ccc3F)c(N)c12 69.9%
Cc1ccc(CNC(=O)CCCn2c(=O)c3ccccc3n(Cc3ccc(Cl)cc3)c2=O)cc1 -4.35%
CN(C(=O)CSc1nnc(-c2ccc([N+](=O)[O-])cc2)o1)c1ccccc1 -3.26%
COc1ccc(CCNC(=O)Cn2cc(C(=O)c3ccc(F)cc3)c(=O)c3ccc(C)nc32)cc1OC 0.557%
Cc1ccc(CNC(=O)CCC(=O)N2CCSc3ccccc32)cc1 -17.1%
Cc1cccc(-c2nc3ccccc3n3c(-c4ccccc4)c4c(=O)n(C)c(=O)n(C)c4c23)c1 -12.1% [at 11.5 µM]
O=C(Nc1ccc(F)c(Cl)c1)N1CCC(CN2CCc3ccccc3C2)CC1 -24.3%
CC(C)(C(=O)O)c1ccc(C(O)CCCN2CCC(C(O)(c3ccccc3)c3ccccc3)CC2)cc1 (stereo not drawn) 7.18%
O=c1cc(N2CCOCC2)oc2c(-c3cccc4c3sc3ccccc34)cccc12 -10.7%
CCC(C)NC(=O)CCc1c(C)nc2cc(-c3ccc(OC)cc3OC)nn2c1C (stereo not drawn) -9.01%
Cc1cccc(CCNC(=O)C2CCN(c3nc4ccccc4nc3C(F)(F)F)CC2)c1 -9.98%
CCc1ccc(NC(=O)Cn2cnc3sc(C)c(S(=O)(=O)N4CCN(c5ccccc5OC)CC4)c3c2=O)cc1 -8.23%
COc1ccc(-n2nnc(-c3nc(-c4cccs4)no3)c2N)cc1 72.8%
Cc1oc(-c2ccccc2F)nc1CSc1nnc(C)n2c1cc1occc12 -3.83%
CC(C)(C)OC(=O)N1CCC(c2c(C(=O)N3CCOCC3)cnn2-c2cccc(F)c2)CC1 -6.82%
COC(=O)c1ccccc1-n1cc2c(c1-c1cccc(C)c1)c(=O)n(C)c(=O)n2C -25%
CCOC(=O)c1cnc2ccc(Cl)cc2c1Nc1ccc(N2CCOCC2)cc1 -31.9%
O=C(Nc1ccc(C(=O)N2CCN(c3ccccc3)CC2)cc1)c1nsc2ccccc12 -23.7%
CCCN(CCC)CCNC(=O)C1CCN(c2nc3ccc(CC)cc3s2)CC1 24.7%
Cc1ccc(S(=O)(=O)c2cn(Cc3ccc(F)cc3)c3cc(N4CCCC4)c(F)cc3c2=O)cc1 -6.12%
CCc1ccccc1NC(=O)C(=O)NCCc1sc(-c2cccc(F)c2)nc1C -28.6%
COc1cc2c(cc1O)CCC1C2CC[C@@]2(C)C1CC[C@@H]2O (stereo partly drawn) -15.9%
CC(C)Oc1ccc(CNC(=O)Cn2ncn3nc(-c4cccs4)cc3c2=O)cc1 -23.5%
COC(=O)c1ccccc1-n1c(CCC(=O)O)ccc1-c1ccccc1 -8.87% [at 11.5 µM]
COc1cccc(CNC(=O)c2ccc3c(c2)nc2n3CCC(C)C2)c1OC (stereo not drawn) 4.79%
COc1ccc(C(=O)NCC(c2ccco2)S(=O)(=O)c2cccs2)cc1OC (stereo not drawn) -22.7%
Cc1ccnc(NS(=O)(=O)c2ccc(NC(=O)c3nc(SC(C)C)ncc3Cl)cc2)n1 -18.6%
COc1cccc(C2Nc3ccccc3-c3nnc(SCc4ccccc4)nc3O2)c1OC (stereo not drawn) 2.52%
Cc1ccc(S(=O)(=O)c2nc(-c3ccccc3)oc2SCC(=O)NC2CCCCC2)cc1 -2.53%
COc1ccc(NC(=O)C(CC(C)C)NS(=O)(=O)c2ccc3c(c2)oc(=O)n3C)cc1Cl (stereo not drawn) -27.1%
CCOc1ccc(NC(=O)Cn2c(=O)n(Cc3nc(-c4ccccc4)no3)c(=O)c3ccccc32)cc1 -14.3%
CCOC(=O)C1=C(CS(=O)(=O)c2ccc(C)c(C)c2)NC(=O)NC1c1ccccc1OCC (stereo not drawn) -12.2%
COc1ccc(N(CC(=O)N2CCN(c3cccc(OC)c3)CC2)S(=O)(=O)c2c(C)noc2C)cc1 -21.3%
O=C(Cn1c(=O)ccc2cc(S(=O)(=O)N3CCCC3)ccc21)NCc1ccc(F)cc1 -5.87%
COc1ccc(CCNC(=O)CSCc2nc(-c3ccc(OC)c(OC)c3)oc2C)cc1OC -26.9%
COc1cc(OC)c(NC(=O)c2ccc3c(Cl)c4c(nc3c2)CCCC4)cc1Cl -53.1%
CN1C(C)(C)CCCC1(C)C 0.577%
COCCNc1ccc(-c2nc(-c3cccc(C)c3)no2)cc1[N+](=O)[O-] 23.5%
CC1CCCN(C(=O)Cn2c(=O)n(CC3CCC(C(=O)NC(C)C)CC3)c(=O)c3sccc32)C1 (stereo not drawn) -2.26%
Cn1c(-n2cccc2)c(-c2c(-c3ccc(F)cc3)[nH]c3c2c(=O)[nH]c(=O)n3C)c(=O)[nH]c1=O 2.35%
COc1ccc(-n2ncc3c2ncn2nc(-c4ccc(Cl)cc4Cl)nc32)cc1 -15.5%
COc1cccc(OC)c1Cn1nnc2c(=O)[nH]c(C3CCN(C(=O)c4ccccc4)CC3)nc21 -13.3%
Cn1cc(-c2ccc3ncc(Cc4ccc5ncccc5c4)n3n2)cn1 -5.37%
CC1(C)Oc2ccc(C#N)cc2[C@@H](N2CCCC2=O)[C@@H]1O 0.882%
CSc1ccc(CCNC(=O)c2ccc3c(c2)nc2n3CCOC2)cc1 2.09%
CCOC(=O)c1c(NC(=O)c2nc(SC)ncc2Cl)sc(C)c1C -6.97%
COc1cccc(-c2ccnc3[nH]n(-c4ccccc4)c(=O)c23)c1 26.2%
Cc1ccc(-n2c(SCC(=O)N3CCC(C)CC3)nc3c([nH]c4ccccc43)c2=O)cc1 31.1%
Cn1c(=O)n(CCCc2ccccc2)c(=O)c2c1nc1n2CCN1c1ccccc1 -4.89%
CCOC(=O)c1scc(-c2ccc(C)cc2)c1S(=O)(=O)Nc1ccc(F)c(F)c1 -28.4%
COc1ccc2c(c1)c(=O)c(C(=O)c1ccc(Cl)cc1)cn2CC(=O)Nc1ccc2c(c1)OCO2 -4.24%
CCN(Cc1ccccc1)C(=O)CCS(=O)(=O)c1ccc2c(c1)oc(=O)n2C -22.5%
Cc1c(Cl)cccc1NC(=O)NCCOCCn1c(=O)oc2ccccc21 -26.3%
CCOC(=O)c1ccc(NC(=O)CN2C(=O)CC(c3ccc(C)c(C)c3)=Nc3ccccc32)cc1 27.7%
CCOc1ccc(CCNC(=O)c2ccc3c(c2)N(Cc2cccc(Cl)c2)C(=O)c2ccccc2S3(=O)=O)cc1OCC -22.6%
Cc1cc(-c2nc3ccccc3s2)ccc1NC(=O)c1cc(Cl)ccc1Cl 11.4%
